Measured values from the supplement of paper PMC3334620.
Whole data set: some 33,000 sequences, median “E-score (-0.5 to 0.5)” near -0.035, cut for the highest 2% near 0.34. The list shows a part of the results.

Target: T1, Mot3 (UniProt P54785)
T1 sequence: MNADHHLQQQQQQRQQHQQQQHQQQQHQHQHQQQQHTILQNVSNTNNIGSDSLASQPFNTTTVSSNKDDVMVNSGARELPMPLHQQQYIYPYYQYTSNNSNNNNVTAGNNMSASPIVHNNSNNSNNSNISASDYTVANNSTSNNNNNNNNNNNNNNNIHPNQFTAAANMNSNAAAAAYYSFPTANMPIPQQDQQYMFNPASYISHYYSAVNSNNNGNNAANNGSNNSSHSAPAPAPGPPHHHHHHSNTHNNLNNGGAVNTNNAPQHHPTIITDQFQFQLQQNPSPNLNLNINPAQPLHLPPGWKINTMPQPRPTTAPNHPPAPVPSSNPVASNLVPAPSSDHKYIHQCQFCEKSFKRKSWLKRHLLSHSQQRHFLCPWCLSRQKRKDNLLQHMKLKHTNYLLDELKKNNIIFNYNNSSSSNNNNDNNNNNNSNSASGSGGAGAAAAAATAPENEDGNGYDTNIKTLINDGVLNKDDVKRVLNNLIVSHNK
Experiment: PBM E-score (8-mer binding enrichment) (E-score (-0.5 to 0.5)); higher = stronger / more preferred TF binding; most listed sequences are background and not binding sites
Settings: protein concentration: 200 nM; construct: GST-full length
Outline: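 Using PURExpress in vitro transcription/translation, GST-tagged yeast transcription factors were made in full-length or DNA-binding-domain form. These were applied at about 100-200 nM to double-stranded universal all-10-mer Agilent arrays, and bound protein was detected with fluorescent anti-GST. Scans were normalised with masliner before the Universal PBM Analysis Suite assigned E-scores to ungapped eight-base words pooled with their reverse complements.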

Sequence	PBM E-score
ATGTCACC	-0.0308
CGTGTCTC	-0.0265
AAGCAGAT	-0.149
ACGATACC	0.0374
CAATCAAG	0.135
CACAGTTA	0.0944
AAATCGCC	-0.255
ATGTAGAA	0.359
CGAAAAGA	0.159
GGGAGGGA	-0.149
AAAGCATG	0.203
CCGGGAAA	-0.16
ATTATGCA	0.0942
GAGTAACA	0.142
CATAAATC	-0.0763
GATTTGGA	-0.107
CTGTAACC	0.177
CAGGGATG	0.034
CGATTTAA	-0.0874
CATTAAAC	0.211
ATGTCCGA	-0.0627
AGTGGACC	-0.275
AATGGGGC	-0.218
AAAATATT	0.0713
GCTCTCCC	-0.174

Sequence	PBM E-score
AAGGTTTA	0.00793
TTGTGAAA	0.111
ACATGATC	0.385
CGCCAGCG	-0.0878
CAAGAGGA	0.038
GACCAACC	-0.0855
AAAGCAGA	0.102
ATATTCCC	-0.133
GAATTGCC	0.246
ACATACCC	0.235
GCAAAGGA	0.144
ATCAACTA	0.206
ATCTTCTA	-0.00375
AAGGGTCA	-0.0956
GCATTCCC	-0.185
TACCTCAA	0.0123
ACGGAAGC	-0.0218
CACCCTGC	-0.145
CACCGGAC	-0.0953
ACATTGGC	0.0739
ACCGTCGT	-0.119
CATCTTCC	-0.0698
GTCGGTTA	-0.132
GGGCGAAC	-0.119
CGGGCGAA	0.00822

Sequence	PBM E-score
ATACGACC	-0.166
CGCGCTCA	-0.115
AAGCGAAC	0.0812
AAATCATA	0.0178
CGCCAGGA	-0.117
ACGAGCAG	-0.00968
AGCGACGG	-0.18
CTGGGCTA	-0.249
CTATTTCA	-0.0187
ATCCAACG	-0.111
AATGCATT	-0.187
ACACACTA	0.178
AAGGAAAC	0.423
ACCCAGTG	-0.108
GACGGGAC	-0.288
GAATCCAA	-0.313
CAGGATGG	-0.15
TAGCGATA	-0.0997
AGGCGAAA	0.00013
CGGAGAGA	-0.143
AACCATGA	0.109
CAGGTTAC	0.138
ACGGATAT	0.00315
CCAGGTCC	-0.258
TATTGACA	0.279

Sequence	PBM E-score
AGGGTTCG	-0.0343
TCCTTGAA	0.00893
AACACCGT	-0.00414
GACCAGCA	-0.237
ACAGCCCT	-0.00337
CGACATCG	0.0358
GTTATCTA	-0.104
CTCTCACC	-0.229
GCCCCCCC	-0.358
AATTAGCT	0.0337
GATATTCA	-0.24
CTGCGGAA	-0.131
AGCGCGAA	-0.0252
AACATAGC	0.228
CACATCCA	0.104
GCATAGGC	0.166
AGGGGTAT	-0.267
CTATAATA	0.0283
CAAGCATA	0.0591
GTCGCGGA	-0.325
CTCGGAAA	0.00029
CTTGCAGA	-0.215
GGATGTTA	0.172
ACGCCGTA	0.153
ACAACACT	0.256

Sequence	PBM E-score
CCAAATAC	0.0884
CAACGTAC	0.0982
AAGGCTTG	-0.0805
CCCTCTTA	-0.0889
ACGCATGC	0.169
CCAGCGGA	-0.219
ACTAAATA	0.0693
CGATAGCG	-0.157
AACCACGA	-0.111
CAGATGCA	-0.0813
AGAAACAA	0.0948
CTTGCAAA	0.0917
GAATTGTA	0.0781
CATAACCC	-0.0772
CATTTAGG	0.0581
AGCTGGTG	0.021
CCTTAAAG	0.0625
CATGGCGG	-0.197
ATACAGAA	-0.024
CCGTGGCG	-0.13
CGCGGCTC	-0.263
CCGTTCGA	-0.238
CTGCAGAA	0.0201
GATTATGA	0.00398
CAAGTTCA	-0.00983

Sequence	PBM E-score
GCTTCGGA	-0.189
CCAAAAAG	-0.0295
GTGTTATA	0.307
AATTTTAC	0.222
ACCACGGG	-0.102
ACCGGTTA	0.0189
CCCGCCGA	-0.268
ACATTAAG	0.211
ATAATCGC	-0.0824
GGAGGCTA	-0.232
CCCAAGGC	0.0287
GTTGGGTA	0.136
CGTCAACG	-0.0672
ACCAGCTC	-0.047
TCGGTAAA	0.0601
CCTGCCGC	-0.0394
GATTGTGC	-0.00636
ACATCGCG	0.0345
TAAGTTAA	0.205
GTATGCAC	-0.0721
CACTTTTC	-0.0644
GATCGGCC	-0.266
CCGCCGCG	-0.156
ATCCTTTG	-0.046
ACCTTTTA	0.00456

Sequence	PBM E-score
CCTGGATA	-0.135
ATGCCCGG	-0.332
AAAATCCT	0.0944
GCAGTGTA	0.069
GAGTACTC	0.0282
ACAGGCCG	-0.00279
TGGTGGAA	-0.112
AACACTCA	0.0881
AGGAGCCA	-0.0259
ACTGACGA	-0.0634
AGATACTC	-0.0757
GAAAAATA	-0.0179
GCTGCCAC	-0.275
AAGGACAT	0.134
AGTCTCCG	-0.0806
GAACCTTC	0.179
GAAAGCGC	0.0787
GTAAAAGA	0.227
TTCCTCAA	0.0878
ACAGCTGG	-0.161
CGAAGCAG	-0.143
AACCAGTG	-0.0417
